{"source": "ChEMBL document CHEMBL1157539", "about": "“Thousands of chemical starting points for antimalarial lead identification” (Nature, 2010)", "note": "Over roughly 13,000 compounds, “IFI” has its median near 4; the highest 2% begin near 17. The list shows a part of the results. Residues, ends and D or L forms follow the SMILES beside them. *: point of attachment. Boc = CC(C)(C)OC(=O)*"}
{"test": "GSK_TCMDC: Inhibition Frequency Index (IFI). The number of non-kinase HTS assays where a compound showed > 50 % inhibition, expressed as a percentage of the number of such assays in which the compound was tested (-0 is zero)", "assay_type": "functional", "units": {"IFI": "%"}}
{"smiles": "CC1CN(Cc2ccc(C#N)cc2)CCN1c1ccc(NC(=O)c2cccs2)cc1", "note": "(stereo not given)", "IFI": 2.44}
{"smiles": "Cc1cccc2nc(-c3ccc(-c4ccc(CN5CCCCC5)cc4)s3)[nH]c12", "IFI": 4.23}
{"smiles": "NC(=O)c1cccc(C(=O)Nc2cccc(-c3cccc(-c4nc5cc(F)ccc5[nH]4)c3)c2)c1", "IFI": 3.45}
{"smiles": "O=[N+]([O-])c1ccc(Nc2nc(N/N=C/c3cccc(O)c3)nc(N3CCCC3)n2)cc1", "IFI": 3.5}
{"smiles": "COc1cc(C(=O)NC2CCN(Cc3ccccc3)CC2)ccc1-c1cc2cc(Cl)c(Cl)cc2[nH]1", "IFI": 3.57}
{"smiles": "CS(=O)(=O)N1CC2(CCN(CCC(NC(=O)Nc3ccccc3)c3ccc(Cl)c(Cl)c3)CC2)c2ccccc21", "note": "(stereo not given)", "IFI": 4.08}
{"smiles": "CC(=O)Nc1nc(C(=O)Nc2ccc(-c3ccc(-c4nc5ccccc5[nH]4)cc3)cc2)cs1", "IFI": 7.76}
{"smiles": "CC1(C)N=C(N)N=C(N)N1OCc1ccc2ccccc2c1", "IFI": 2.17}
{"smiles": "NC1CCCN(Cc2cccc(-c3cccc(-c4nc5ccccc5[nH]4)c3)c2)C1", "note": "(stereo not given)", "IFI": 4.17}
{"smiles": "NS(=O)(=O)c1ccc(Nc2nccc(-c3c(-c4cccc(NC(=O)c5c(F)cccc5F)c4)nn4ccccc34)n2)cc1", "IFI": 7.96}
{"smiles": "c1ccc(CN2CCC(NCc3ccc(-c4cncc5ccccc45)cc3)CC2)cc1", "IFI": 9.52}
{"smiles": "Cc1cc(=NN=Cc2cccc(Cl)c2)c2ccc(F)cc2[nH]1", "IFI": 1.49}
{"smiles": "O=C(/C=C/c1ccc(Cl)c(Cl)c1)NCCCCCN1CCC(NC(=O)Nc2ccc(C(F)(F)F)cc2)CC1", "IFI": 10.6}
{"smiles": "C[C@@H](Oc1cc(-n2cnc3ccc(NC(=O)CCN4CCCCC4)cc32)sc1C(N)=O)c1ccccc1Cl", "IFI": 7.75}
{"smiles": "CN(C)c1ccc(CN2CCC(NC(=O)c3ccc(-c4cccc(Cl)c4)s3)CC2)cc1", "IFI": 17.9}
{"smiles": "O=C(NCc1ccccc1)c1ccc(C(=O)NCC2CNCCO2)cc1", "note": "(stereo not given)", "IFI": -0}
{"smiles": "O=C(/C=C/c1ccc(Cl)c(Cl)c1)NCCCCCN1CCCN(C(=O)Nc2cc(Cl)cc(Cl)c2)CC1", "IFI": 7.38}
{"smiles": "COc1ccc2nc(C)cc(NCc3ccc4ccccc4c3)c2c1", "IFI": 1.42}
{"smiles": "CCCC1N=C(N)N=C(N)N1c1cccc(C(F)(F)F)c1", "note": "(stereo not given)", "IFI": 0.77}
{"smiles": "O=C(Nc1ccc(-c2nc3ccccc3[nH]2)cc1)c1cncc(Br)c1", "IFI": 0.72}
{"smiles": "Cc1cccc(-c2ccc(NC(=O)Nc3ccc4nccc(N5CCN(C)CC5)c4c3)cc2C)n1", "IFI": 2.92}
{"smiles": "N=C(N)Nc1nc(-c2ccc(NC(=O)Nc3cccc(-c4csc(NC(=N)N)n4)c3)cc2)cs1", "IFI": 5.76}
{"smiles": "CCN(CC)c1nc(Nc2cc(C)ccc2C)nc(Nc2ccccc2O)n1", "IFI": 2.17}
{"smiles": "CC(C)N(CCOc1ccc2c(c1)N(C(=O)Nc1ccc(Cl)c(Cl)c1)CC2)C(C)C", "IFI": 4.32}
{"smiles": "N=C(N)NN=CC(=O)Nc1ccc(Cl)cc1", "IFI": 3.01}
{"smiles": "CC(CON1C(N)=NC(N)=NC1(C)C)c1ccc(Cl)cc1Cl", "note": "(stereo not given)", "IFI": 5.04}
{"smiles": "Cc1cccc2nc(-c3ccc(-c4ccc(NC(=O)NCc5ccc(F)cc5)cc4)cc3)[nH]c12", "IFI": 6.67}
{"smiles": "CC(C)CN1C(=O)c2ccc(C(=O)Nc3nccs3)cc2C1=O", "IFI": 0.71}
{"smiles": "CC(C)CCN1CCCN(Cc2cccc(C(=O)Nc3ccc(C(C)(C)C)cc3)c2)CC1", "IFI": 7.5}
{"smiles": "NC(=O)c1ccc(C(=O)Nc2cccc(-c3ccc(-c4nc5cc(C(F)(F)F)ccc5[nH]4)cc3)c2)cc1", "IFI": 2.59}
{"smiles": "Cc1cc(=NN=Cc2ccccc2Cl)c2cc(C(F)(F)F)ccc2[nH]1", "IFI": 1.54}
{"smiles": "CC(C)n1ncc2c(C(=O)N3CCCc4ccccc43)cc(-c3ccccc3)nc21", "IFI": 2.97}
{"smiles": "CN1CCN(c2ccnc3ccc(NC(=O)c4ccc(Cl)c(Cl)c4)cc23)CC1", "IFI": -0}
{"smiles": "N#Cc1ccc(-c2ccc(C(=O)NCCCCN3CC=C(c4ccc5c(c4OCC4CC4)CCCC5)CC3)cc2)cc1", "IFI": 11.4}
{"smiles": "Cc1noc(C)c1-c1cccc(CNCc2cccc(-c3csc(-c4nc5ccccc5[nH]4)c3)c2)c1", "IFI": 7.69}
{"smiles": "COC(=O)CC[C@H](NC(=O)[C@H](C)NC(=O)OC(C)(C)C)C(=O)OC", "note": "(Boc-Ala-Glu(OMe)-OMe)", "IFI": -0}
{"smiles": "COc1cc(NC(=O)/C=C/c2ccc(-c3ccccc3)cc2)ccc1OCCN(C(C)C)C(C)C", "IFI": 7.3}
{"smiles": "CN1CCCN(c2ccnc3cc4c(cc23)N(C(=O)c2ccc(Cl)c(Cl)c2)CC4)CC1", "IFI": 3.62}
{"smiles": "Cc1ccc(C(=O)N2CCc3cc4nccc(N5CCN6CCC[C@H]6C5)c4cc32)cc1", "IFI": 3.65}
{"smiles": "CC1(C)NC(N)=NC(=N)N1OCCCc1ccc(Cl)cc1Cl", "IFI": 5.76}
{"smiles": "NOCCCOc1ccccc1", "IFI": 1.46}
{"smiles": "CCC[C@@H]([C@@H](CC(C)C)C(=O)N[C@@H](CCC/N=C(/N)NS(C)(=O)=O)C(=O)Nc1nccs1)N(O)C=O", "IFI": 2.24}
{"smiles": "Oc1ccc(CCCNc2nc(NCc3ccccc3-c3ccccc3)nc(NC3CCNCC3)n2)cc1", "IFI": 15.2}
{"smiles": "O=[N+]([O-])c1ccc(C(O)P(=O)(c2ccccc2)c2ccccc2)cc1", "note": "(stereo not given)", "IFI": 0.76}
{"smiles": "COc1ccc(-c2ccc(NC(=O)c3cccc(Cl)c3)cc2)cc1CN(C)CCO", "IFI": 5}
{"smiles": "COc1ccc(OC)c(C=NNc2nc3ccccc3[nH]2)c1", "IFI": 0.74}
{"smiles": "Fc1ccccc1COc1ccc(Nc2ncnc3ccc(I)cc23)cc1Cl", "IFI": 2.22}
{"smiles": "O=C(Nc1ccc(CCNC2=NCCN2)cc1)Nc1ccc(CCNC2=NCCN2)cc1", "IFI": -0}
{"smiles": "COc1ccc(NC(=O)[C@H](CC(C)C)Nc2cc(C)nc(NCc3ccccc3C)n2)cc1", "IFI": 4.88}
{"smiles": "OC1CCCN(Cc2ccc(-c3ccc(-c4nc5cc(F)ccc5[nH]4)cc3)cc2)C1", "note": "(stereo not given)", "IFI": 5.63}
{"smiles": "CCCn1cc2c(ccc3nc(N)nc(N)c32)n1", "IFI": 2.24}
{"smiles": "NC(=O)c1ccc(NCC(=O)Nc2cccc(-c3cccc(-c4nc5cc(F)ccc5[nH]4)c3)c2)cc1", "IFI": 9.52}
{"smiles": "O=C(Nc1cccc(N2CCC(NCCCn3ccnc3)CC2)c1)c1cccc(C(F)(F)F)c1", "IFI": 0}
{"smiles": "COc1cc(-c2cnc(N)c(-c3nc4ccccc4[nH]3)c2)cc(OC)c1OC", "IFI": 11.4}
{"smiles": "C=C[C@]1(C)C[C@@H](OC(=O)NC(=O)C2CCN(C(=O)CSc3ccccc3)CC2)[C@]2(C)[C@H](C)CC[C@]3(CCC(=O)[C@H]32)[C@@H](C)[C@@H]1O", "IFI": 2.26}
{"smiles": "CCCc1nc2c(N3CCCN(C(=O)NC4CCCCC4)CC3)cccc2n1Cc1ccccn1", "IFI": 7.14}
{"smiles": "O=C(O)c1cc(C(F)(F)F)co1", "IFI": 0.74}
{"smiles": "Cc1nc(-c2cccc(NCc3ccccc3)c2)[nH]c1C", "IFI": 4}
{"smiles": "Cc1ncc([N+](=O)[O-])n1CCOC(=O)NC(Nc1ccc(Br)cc1)C(Cl)(Cl)Cl", "note": "(stereo not given)", "IFI": 2.4}
{"smiles": "Cn1cc(CCNc2ccnc(NCCc3coc4ccccc34)n2)c2ccccc21", "IFI": 16.7}
{"smiles": "FC(F)(F)c1ccc2nccc(NCc3ccccc3)c2c1", "IFI": 1.47}
{"smiles": "Cc1[nH]c(C)c(-c2ccc(OCCSc3ccncc3)cc2)c(=O)c1Br", "IFI": 3.7}
{"smiles": "O=C(COc1cccc([N+](=O)[O-])c1)Nc1ccc(-c2nc3ccccc3[nH]2)cc1", "IFI": -0}
{"smiles": "NC(=O)c1cnc2cc(-c3ccoc3)ccc2c1Nc1ccc(NC(=O)Nc2ccccc2Cl)cc1", "IFI": 4.79}
{"smiles": "COc1cccc(-c2ccc(C(=O)NC3CCN(Cc4ccc(C(C)(C)C)cc4)CC3)s2)c1", "IFI": 12.3}
{"smiles": "CC(C)c1cc(C(=O)N[C@@H](Cc2ccccc2)[C@H](O)CNC2CCCCC2)cc(N2CCCC2=O)c1", "IFI": 2.21}
{"smiles": "CCN(CCCN1CCCCC1)c1cc(C)nc(Nc2ccc(C)c(Br)c2)n1", "IFI": 8.86}
{"smiles": "NC(=O)c1cccc(C(=O)Nc2cccc(-c3csc(-c4nc5ccccc5[nH]4)c3)c2)c1", "IFI": 1.87}
{"smiles": "Oc1nc(Cc2ccccc2)nc2ccc(Cl)cc12", "IFI": 0}
{"smiles": "Fc1ccc(CNc2nc(-c3ccc(F)c(C(F)(F)F)c3)n(-c3cccc(C(F)(F)F)c3)n2)cc1", "IFI": 2.44}
{"smiles": "CC(C)N1CCC(N(Cc2ccc(-c3ccc(C(F)(F)F)cc3)cc2)C(=O)Cn2c(SCc3cccc(F)c3F)cc(=O)c3ccccc32)CC1", "IFI": 6.52}
{"smiles": "CC12CCC(=O)N1C(C(=O)Nc1cccc(C(=O)Nc3cccc(C(F)(F)F)c3)c1)CS2", "note": "(stereo not given)", "IFI": 0}
{"smiles": "Cc1cc(N[C@@H](Cc2ccccc2)C(=O)NCCOc2ccccc2)nc(NCCc2ccccc2)n1", "IFI": 16.3}
{"smiles": "CC(C)c1ccc(CN2CCC(CNC(=O)c3cc(-c4ccc(N(C)C)cc4)cs3)C2)cc1", "note": "(stereo not given)", "IFI": 10}
{"smiles": "O=C1NC(=O)C(c2ccc(Cl)cc2)=C1Nc1cccc(S(=O)(=O)C(F)(F)F)c1", "IFI": 0.72}
{"smiles": "Cc1cc(N2CCC(NS(=O)(=O)c3ccc(F)cc3)CC2)nc(Nc2cccc(C#N)c2)n1", "IFI": 3.85}
{"smiles": "COc1c(CN2CCOCC2)cccc1-c1cc2c(-c3ccc(C(=O)O)c(C(C)C)c3)ccnc2[nH]1", "IFI": -0}
{"smiles": "OCCn1c(CNCCCNc2nc3ccccc3[nH]2)cc2c(Cl)cc(Cl)cc21", "IFI": 6.38}
{"smiles": "O=C(Oc1ccc(C2CNCCc3c2cc(OC(=O)c2ccc(O)cc2)c(OC(=O)c2ccc(O)cc2)c3Cl)cc1)c1ccc(O)cc1", "note": "(stereo not given)", "IFI": 5.07}
{"smiles": "CC(Cc1ccc(OCc2ccccc2)cc1)Nc1nc(O)c2ccccc2n1", "note": "(stereo not given)", "IFI": 4.14}
{"smiles": "COc1ccc(OCC(O)CN(Cc2ccccc2OC)C(=O)Nc2ccc(Br)cc2)cc1", "note": "(stereo not given)", "IFI": 3.55}
{"smiles": "O=C(/C=C/c1ccccc1F)NC1CCC(CCN2CCc3ccc(-c4cccnc4)cc3CC2)CC1", "note": "(stereo not given)", "IFI": 5.76}
{"smiles": "Cc1nn(CC(C)C)c2sc(C(=O)Nc3nc(-c4ccccn4)cs3)cc12", "IFI": 10}
{"smiles": "COc1ccc(C)c(Nc2ccnc(Nc3ccc(-c4cnc[nH]4)cc3)n2)c1", "IFI": 12.9}
{"smiles": "OCc1ccc(-c2cncc(Nc3ccc(F)c(Cl)c3)c2)cc1", "IFI": 6.02}
{"smiles": "CNC(=O)Cc1ccc(C(=O)Nc2cccc(-c3cccc(-c4nc5cccc(C)c5[nH]4)c3)c2)cc1", "IFI": 2.73}
{"smiles": "CC(=O)Nc1ccc(OCCCCN(Cc2ccccc2C(F)(F)F)c2ccc(C(F)(F)F)c(C#N)c2)c(Cl)c1", "IFI": 1.52}
{"smiles": "Cc1cc(=NN=Cc2ccccc2Cl)c2ccccc2[nH]1", "IFI": 0.72}
{"smiles": "CC(C)N1CCC(N(Cc2ccc(-c3ccc(C(F)(F)F)cc3)cc2)C(=O)CCCn2c(CCc3cccc(F)c3F)nc(=O)c3ccccc32)CC1", "IFI": 7.91}
{"smiles": "Cc1ccc(CN2CCN(Cc3cccc(NC(=O)c4ccc5ccccc5c4)c3)CC2)cc1C", "IFI": 5.59}
